Measurements published in US20250092030A1, “ENHANCERS OF PARTICULATE GUANYLYL CYCLASE RECEPTOR A” (Mayo Foundation for Medical Education and Research, priority 2023, published 2025).
A number of entries come with more than one value. This list holds those alone. The source may hold further records. For part of these data: The records of an entry seem to repeat one measurement (runs, samples, wells or individuals). For part of these data: The records of an entry read as repeated measurements on other runs, samples or individuals; one of them may be the mean.

Target: T1, particulate guanylyl cyclase receptor A (pGC-A) (Homo sapiens, UniProt P16066)
T1 construct: expressed in transfected cells; host or cells: HEK293
T1 sequence (P16066 33-1061): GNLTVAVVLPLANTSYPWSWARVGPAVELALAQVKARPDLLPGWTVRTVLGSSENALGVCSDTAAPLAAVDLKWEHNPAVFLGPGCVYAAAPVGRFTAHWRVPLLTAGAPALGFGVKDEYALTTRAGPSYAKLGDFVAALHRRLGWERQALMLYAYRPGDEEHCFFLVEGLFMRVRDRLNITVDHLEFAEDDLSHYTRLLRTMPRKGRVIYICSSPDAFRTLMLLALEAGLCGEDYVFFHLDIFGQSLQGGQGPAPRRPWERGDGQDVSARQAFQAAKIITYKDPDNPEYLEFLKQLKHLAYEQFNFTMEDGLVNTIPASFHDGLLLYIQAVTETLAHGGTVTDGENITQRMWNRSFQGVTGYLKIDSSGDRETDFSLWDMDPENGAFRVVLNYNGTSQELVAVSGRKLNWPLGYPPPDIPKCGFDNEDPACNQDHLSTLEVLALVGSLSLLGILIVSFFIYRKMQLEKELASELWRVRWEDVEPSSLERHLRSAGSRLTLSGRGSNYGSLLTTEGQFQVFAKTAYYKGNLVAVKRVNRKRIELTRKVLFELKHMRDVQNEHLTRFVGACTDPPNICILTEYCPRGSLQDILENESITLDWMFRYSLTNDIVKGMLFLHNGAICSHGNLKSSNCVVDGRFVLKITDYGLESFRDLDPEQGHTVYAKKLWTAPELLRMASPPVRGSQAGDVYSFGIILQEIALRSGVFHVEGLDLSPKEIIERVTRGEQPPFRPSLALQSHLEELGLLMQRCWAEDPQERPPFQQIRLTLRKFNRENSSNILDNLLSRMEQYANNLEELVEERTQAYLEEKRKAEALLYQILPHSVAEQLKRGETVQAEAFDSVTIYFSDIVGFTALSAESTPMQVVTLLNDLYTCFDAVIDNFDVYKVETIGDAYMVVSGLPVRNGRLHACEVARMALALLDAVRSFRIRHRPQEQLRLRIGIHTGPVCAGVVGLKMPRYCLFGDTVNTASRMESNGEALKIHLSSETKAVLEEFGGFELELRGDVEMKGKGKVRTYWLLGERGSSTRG
T1 sequence (P01160 124-151 partner limits assumed): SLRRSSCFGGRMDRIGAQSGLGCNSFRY
Experiment: cGMP production by HTRF in HEK293 cells overexpressing pGC-A, with ANP
Assay type: cell-based
Details: test compound plus EC20 concentration of ANP
Excerpt: Assay: Generally, the assay monitors the production of cGMP, the second messenger generated by pGC-A, by Time-Resolved Florescence (HTRF) in HEK293 cells overexpressing the pGC-A. pGC-A suspension cells were stimulated in the presence of the test compound and an EC20 concentration of ANP. The quantity of cGMP was detected by competitive immunoassay using Eu^3+ cryptate-labeled anti-cGMP and d2-labeled cGMP and normalized to maximal amount produced by an EC80 concentration of ANP. Compound EC50 values were determined in the primary assay, in the presence or absence of ANP, to determine mode of action as positive modulators and tested for selectivity in the same assay platform but in HEK cells overexpressing the particulate guanylyl cyclase B receptor (pGC-B), of which CNP is the endogenous ligand.
Assay details: 20 nL of 10 μM test compound in DMSO was added to columns 5-48 of 1536 well white high base screening plates (Corning, New York, NY) cells using 550 ECHO acoustic dispenser (Labcyte, San Jose, CA). Alpha-atrial natriuretic peptide (ANP) (Phoenix Pharmaceutics) was prepared as stock aliquots at 5 μM in PBS with 0.1% BSA. An approximate […] concentration of ANP ([…]) in assay buffer (HBSS containing 5 mM HEPES and 0.05% BSA) was added to columns 3-48 at a volume of 1 μL. Assay buffer only was added to column 1 and assay buffer containing a saturating concentration of ANP (5 nM) was added to column 2. HEK293 cells overexpressing GC-A were resuspended in assay media (OptimMem media containing 2% Heat-inactivated Fetal bovine serum and L-glutamine) at a density of 6×10^5 cells/mL and 2 μL were plated in screening plates (1200 cells/well) in suspension using a Bioraptr 2. Plates were spun at 1000 rpm for 1 min and incubated for 30 min at room temperature. 1.5 μL d2-labeled cGMP followed by 1.5 μL Eu^3+ cryptate-labeled anti-cGMP cGMP detection kit (CiBio; #62GM2PEC) prepared according to manufacturer's protocol were added to all wells using a Bioraptr 2 and TR-FRET signal was detected on an EnVision detector (PerkinElmer). […]

Row | EC50 | Structure (SMILES)
1 | 22 µM and 1.4 µM [one cell] | O=C(Nc1nc2c(F)cc(F)cc2[nH]1)C1CCCNC1 (stereo not drawn) [249b]
2 | 700 nM, 1.01 µM, 100 nM [one cell] | CN1CCCC(N2CCCC(C(=O)Nc3nc4c(F)cc(F)cc4s3)C2)C1 (stereo not drawn) [compound 070]
3 | 390 nM and 4.6 µM [one cell] | CNCCN1CCCC(C(=O)Nc2nc3c(F)cc(F)cc3s2)C1 (stereo not drawn) [compound 237]
